{"source": "a collection of fitness landscapes (doi:10.1016/j.celrep.2020.107928)", "parents": {"B1": {"name": "Caulobacter ParB omega fusion; a variant is named by its letters at X, in order, B8GW30 (parent)", "chain": "MESVVVGEPGMSEGRRGLGRGLSALLGEVDAAPAQAPGEQLGGSREAPIEILQRNPDQPRRTFREEDLEDLSNSIREKGVLQPILVRPSPDTAGEYQIVAGERAWRAAQRAGLKTVPIMVRELDDLAVLEIGIIENVQRADLNVLEEALSYKVLMEKFERTQENIAQTIGKSXSHVANXMRLLXLPDEVQSYLVSGELTAXHARAIAAAADPVALAKQIIEGGLSVRETEALARKAPNLSAGKSKGGRPPRVKDTDTQALESDLSSVLGLDVSIDHRGSTGTLTITYATLEQLDDLCNRLTRGI"}}, "note": "Whole data set: some 81,000 sequences, median “one-hybrid fitness for binding parS DNA” near -0.17, cut for the highest 2% near 0.51. Some of the results follow.", "data": [{"variants_of": "B1", "assay": "one-hybrid fitness for binding parS DNA (scaled: cognate 1, non-cognate 0); higher = stronger binding", "details": "with parS DNA site", "outline": "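On M9-minus-histidine containing 0.1 mM IPTG and 5 mM 3-AT, E. coli USO cells with a HIS3 reporter, site 19 bp from the promoter, grew 48 hours at 37°C to select Caulobacter ParB libraries randomised at four specificity codons. Plasmids from before and after were Illumina-sequenced, with three replicate libraries pooled and variants under 10 reads left out. Fitness is the log change in variant-to-wild-type read ratio, rescaled against cognate and non-cognate.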", "values": [{"variant": "LQPS", "one-hybrid fitness for binding parS DNA": "≤ 0.2"}, {"variant": "MGAS", "one-hybrid fitness for binding parS DNA": "≤ 0.2"}, {"variant": "ETNK", "one-hybrid fitness for binding parS DNA": "≤ 0.2"}, {"variant": "IELT", "one-hybrid fitness for binding parS DNA": "≤ 0.2"}, {"variant": "VKFG", "one-hybrid fitness for binding parS DNA": "≤ 0.2"}, {"variant": "LACV", "one-hybrid fitness for binding parS DNA": "≤ 0.2"}, {"variant": "RWEK", "one-hybrid fitness for binding parS DNA": "≤ 0.2"}, {"variant": "IAVW", "one-hybrid fitness for binding parS DNA": "≤ 0.2"}, {"variant": "EATK", "one-hybrid fitness for binding parS DNA": "≤ 0.2"}, {"variant": "GLLQ", "one-hybrid fitness for binding parS DNA": "≤ 0.2"}, {"variant": "RNER", "one-hybrid fitness for binding parS DNA": "≤ 0.2"}, {"variant": "NTTN", "one-hybrid fitness for binding parS DNA": "≤ 0.2"}, {"variant": "KQRP", "one-hybrid fitness for binding parS DNA": "≤ 0.2"}, {"variant": "CRKR", "one-hybrid fitness for binding parS DNA": "≤ 0.2"}, {"variant": "HANW", "one-hybrid fitness for binding parS DNA": "≤ 0.2"}, {"variant": "TNYT", "one-hybrid fitness for binding parS DNA": "≤ 0.2"}, {"variant": "WCAT", "one-hybrid fitness for binding parS DNA": "≤ 0.2"}, {"variant": "QWHS", "one-hybrid fitness for binding parS DNA": "≤ 0.2"}, {"variant": "PTWL", "one-hybrid fitness for binding parS DNA": "≤ 0.2"}, {"variant": "THLI", "one-hybrid fitness for binding parS DNA": "≤ 0.2"}, {"variant": "TMIE", "one-hybrid fitness for binding parS DNA": "≤ 0.2"}, {"variant": "VAGY", "one-hybrid fitness for binding parS DNA": "≤ 0.2"}, {"variant": "RIKP", "one-hybrid fitness for binding parS DNA": "≤ 0.2"}, {"variant": "SLKD", "one-hybrid fitness for binding parS DNA": "≤ 0.2"}, {"variant": "PRAL", "one-hybrid fitness for binding parS DNA": "≤ 0.2"}, {"variant": "LGKI", "one-hybrid fitness for binding parS DNA": "≤ 0.2"}, {"variant": "TNYP", "one-hybrid fitness for binding parS DNA": "≤ 0.2"}, {"variant": "EPFC", "one-hybrid fitness for binding parS DNA": "≤ 0.2"}, {"variant": "YDEP", "one-hybrid fitness for binding parS DNA": 0.283}, {"variant": "TMFT", "one-hybrid fitness for binding parS DNA": "≤ 0.2"}, {"variant": "RERD", "one-hybrid fitness for binding parS DNA": "≤ 0.2"}, {"variant": "NHYN", "one-hybrid fitness for binding parS DNA": "≤ 0.2"}, {"variant": "TMGC", "one-hybrid fitness for binding parS DNA": "≤ 0.2"}, {"variant": "YFAS", "one-hybrid fitness for binding parS DNA": "≤ 0.2"}, {"variant": "TSGW", "one-hybrid fitness for binding parS DNA": "≤ 0.2"}, {"variant": "PYER", "one-hybrid fitness for binding parS DNA": "≤ 0.2"}, {"variant": "LPSE", "one-hybrid fitness for binding parS DNA": "≤ 0.2"}, {"variant": "DSWA", "one-hybrid fitness for binding parS DNA": "≤ 0.2"}, {"variant": "RLPD", "one-hybrid fitness for binding parS DNA": "≤ 0.2"}, {"variant": "QATW", "one-hybrid fitness for binding parS DNA": "≤ 0.2"}, {"variant": "GTRG", "one-hybrid fitness for binding parS DNA": "≤ 0.2"}, {"variant": "TVIL", "one-hybrid fitness for binding parS DNA": "≤ 0.2"}, {"variant": "LMHT", "one-hybrid fitness for binding parS DNA": "≤ 0.2"}, {"variant": "TCIC", "one-hybrid fitness for binding parS DNA": "≤ 0.2"}, {"variant": "YQRA", "one-hybrid fitness for binding parS DNA": "≤ 0.2"}, {"variant": "EGFL", "one-hybrid fitness for binding parS DNA": "≤ 0.2"}, {"variant": "LRAG", "one-hybrid fitness for binding parS DNA": "≤ 0.2"}, {"variant": "VLFS", "one-hybrid fitness for binding parS DNA": "≤ 0.2"}, {"variant": "KTDG", "one-hybrid fitness for binding parS DNA": "≤ 0.2"}, {"variant": "NQQW", "one-hybrid fitness for binding parS DNA": "≤ 0.2"}, {"variant": "TVDR", "one-hybrid fitness for binding parS DNA": "≤ 0.2"}, {"variant": "NYPL", "one-hybrid fitness for binding parS DNA": "≤ 0.2"}, {"variant": "VLYQ", "one-hybrid fitness for binding parS DNA": "≤ 0.2"}, {"variant": "NGGG", "one-hybrid fitness for binding parS DNA": "≤ 0.2"}, {"variant": "INCV", "one-hybrid fitness for binding parS DNA": "≤ 0.2"}, {"variant": "SDAM", "one-hybrid fitness for binding parS DNA": "≤ 0.2"}, {"variant": "QYMR", "one-hybrid fitness for binding parS DNA": "≤ 0.2"}, {"variant": "EGTT", "one-hybrid fitness for binding parS DNA": "≤ 0.2"}, {"variant": "VHME", "one-hybrid fitness for binding parS DNA": "≤ 0.2"}, {"variant": "PIAV", "one-hybrid fitness for binding parS DNA": "≤ 0.2"}, {"variant": "LYWT", "one-hybrid fitness for binding parS DNA": "≤ 0.2"}, {"variant": "VSNG", "one-hybrid fitness for binding parS DNA": "≤ 0.2"}, {"variant": "RCHE", "one-hybrid fitness for binding parS DNA": "≤ 0.2"}, {"variant": "RNLL", "one-hybrid fitness for binding parS DNA": "≤ 0.2"}, {"variant": "HQWA", "one-hybrid fitness for binding parS DNA": "≤ 0.2"}, {"variant": "YEES", "one-hybrid fitness for binding parS DNA": "≤ 0.2"}, {"variant": "RTEQ", "one-hybrid fitness for binding parS DNA": "≤ 0.2"}, {"variant": "YQRL", "one-hybrid fitness for binding parS DNA": "≤ 0.2"}, {"variant": "TPHM", "one-hybrid fitness for binding parS DNA": "≤ 0.2"}, {"variant": "AGEC", "one-hybrid fitness for binding parS DNA": "≤ 0.2"}, {"variant": "YHYS", "one-hybrid fitness for binding parS DNA": "≤ 0.2"}, {"variant": "QCER", "one-hybrid fitness for binding parS DNA": "≤ 0.2"}, {"variant": "PIGD", "one-hybrid fitness for binding parS DNA": "≤ 0.2"}, {"variant": "GTRC", "one-hybrid fitness for binding parS DNA": "≤ 0.2"}, {"variant": "VMRC", "one-hybrid fitness for binding parS DNA": "≤ 0.2"}, {"variant": "EPFT", "one-hybrid fitness for binding parS DNA": "≤ 0.2"}, {"variant": "VHQY", "one-hybrid fitness for binding parS DNA": "≤ 0.2"}, {"variant": "SYNY", "one-hybrid fitness for binding parS DNA": "≤ 0.2"}, {"variant": "QVEP", "one-hybrid fitness for binding parS DNA": "≤ 0.2"}, {"variant": "WAIR", "one-hybrid fitness for binding parS DNA": "≤ 0.2"}, {"variant": "CQKV", "one-hybrid fitness for binding parS DNA": "≤ 0.2"}, {"variant": "MVYD", "one-hybrid fitness for binding parS DNA": "≤ 0.2"}, {"variant": "TGAI", "one-hybrid fitness for binding parS DNA": "≤ 0.2"}, {"variant": "YETF", "one-hybrid fitness for binding parS DNA": "≤ 0.2"}]}]}
